Laboratory results taken from PubChem BioAssay (Tox21).
Where “and” joins values, the source holds several entries; their conditions need not be identical. Equal values may be shown once. The shares of active, inactive and inconclusive entries below differ from those in the screen. Unless noted, calls follow the shape of the full dose curve. A potency beside an inconclusive call is a rough fit, not a confirmed value.

Assays:
[1] = qHTS assay for small molecule agonists of the p53 signaling pathway (AID 651631); settings: HCT-116 p53RE-bla reporter, beta-lactamase FRET ratio, 16 h; activation: at 73.3 µM (top of the series) unless noted; also: nearly all actives have a fitted effect of over 15% in size
How it was run: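 Agonist mode screen using a stably integrated beta-lactamase gene under p53 response elements in HCT-116 cells. Compound exposure lasts 16 h at 37 °C; fluorescence intensity is measured following 2 h FRET substrate loading.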

[2] = qHTS assay for small molecule agonists of the p53 signaling pathway - cell viability (AID 651633); also: nearly all actives have a fitted effect of over 30% in size
How it was run: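 Viability counter-read: CellTiter-Glo luminescence (30 min, room temperature) in the same p53RE-bla plates. These plates had been exposed to compounds for 16 h at 37 C.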

[3] = qHTS assay for small molecules that induce genotoxicity in human embryonic kidney cells expressing luciferase-tagged ATAD5 - cell viability (AID 651634); also: nearly all actives have a fitted effect of over 25% in size
How it was run: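 After 15.5 hr incubation with compound at 37C, 5% CO2, HEK293T ATAD5-luciferase cells received CellTiter-Fluor reagent; fluorescence intensity was quantified following 30 min at 37C.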

[4] = qHTS assay for small molecule disruptors of the mitochondrial membrane potential (AID 720635; active = well fitted curve in the direction sought with a large enough effect in the repeat runs; inconclusive = weak or mixed curves; inactive = no such curve, though single readings can be large; an effect the other way counts as inactive or inconclusive); settings: HepG2 mitochondrial membrane potential, Mito-MPS dye ratio; series mostly up to 83.2 µM
How it was run: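 Mitochondrial membrane potential tracked with Mito-MPS dye, red aggregates (ex 540/em 590 nm) against green monomers (ex 490/em 535 nm). Compound treatment 1 hr at 37C, dye 30 min in HepG2.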

[5] = target: Glucocorticoid receptor (Homo sapiens) (UniProt P04150); assay: qHTS assay to identify small molecule agonists of the glucocorticoid receptor (GR) signaling pathway (AID 720691; active = well fitted activation curve with a large enough effect in the signal ratio in the repeat runs, not every such curve was filed as active; inconclusive = weak or mixed curves, or effect the other way; inactive = no such curve, though single readings can be large or run the other way; the % refers to the signal ratio); settings: GR-bla HeLa, beta-lactamase reporter ratio, 18 h; activation: at 62.4 µM (top of the series) unless noted
Sequence of UniProt P04150 (P04150 whole entry, looked up): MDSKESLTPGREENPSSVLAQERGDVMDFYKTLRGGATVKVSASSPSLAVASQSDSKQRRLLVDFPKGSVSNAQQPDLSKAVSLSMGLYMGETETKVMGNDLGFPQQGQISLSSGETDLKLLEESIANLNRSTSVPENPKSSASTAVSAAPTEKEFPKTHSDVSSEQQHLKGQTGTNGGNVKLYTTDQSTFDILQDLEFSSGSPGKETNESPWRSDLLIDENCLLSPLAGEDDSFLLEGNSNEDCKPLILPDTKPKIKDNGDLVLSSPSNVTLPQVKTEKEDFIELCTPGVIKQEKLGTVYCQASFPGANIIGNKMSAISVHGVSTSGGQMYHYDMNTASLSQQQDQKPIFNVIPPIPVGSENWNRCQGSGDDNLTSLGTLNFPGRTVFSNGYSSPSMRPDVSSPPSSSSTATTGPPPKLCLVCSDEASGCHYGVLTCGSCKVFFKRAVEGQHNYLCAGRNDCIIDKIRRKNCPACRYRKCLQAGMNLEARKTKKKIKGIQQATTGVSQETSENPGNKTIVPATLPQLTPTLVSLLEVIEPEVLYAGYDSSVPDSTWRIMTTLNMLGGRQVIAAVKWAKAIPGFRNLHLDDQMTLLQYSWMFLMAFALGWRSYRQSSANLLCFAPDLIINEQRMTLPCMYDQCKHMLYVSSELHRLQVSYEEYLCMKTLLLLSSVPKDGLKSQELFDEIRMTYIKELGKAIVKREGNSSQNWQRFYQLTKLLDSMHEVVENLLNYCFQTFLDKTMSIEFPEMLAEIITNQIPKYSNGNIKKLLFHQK
How it was run: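 Cells: GR-bla HeLa, endogenous GR with stably integrated GRE-beta-lactamase reporter. Treatment 18 h, 37 C, compounds delivered in DMSO. Detection via LiveBLAzer B/G FRET substrate, 2 h RT, fluorescence intensity.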

[6] = target: Glucocorticoid receptor (Homo sapiens) (UniProt P04150); assay: qHTS assay to identify small molecule antagonists of the glucocorticoid receptor (GR) signaling pathway (AID 720692; active = well fitted inhibition curve with a large enough effect in the signal ratio in the repeat runs, not every such curve was filed as active; inconclusive = weak or mixed curves, or effect the other way; inactive = no such curve, though single readings can be large or run the other way; the % refers to the signal ratio); settings: GR-bla HeLa, beta-lactamase FRET ratio, dexamethasone-stimulated, 18 h; series mostly up to 58.5 µM
How it was run: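 Quantitative HTS in antagonist format: HeLa cells expressing endogenous GR and a stably integrated GRE-bla reporter, stimulated with 5 nM dexamethasone (final) alongside test compounds for 18 h.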

[7] = qHTS assay to identify small molecule antagonists of the glucocorticoid receptor (GR) signaling pathway - cell viability counter screen (AID 720693; active = well fitted curve in the direction sought with a large enough effect in the repeat runs; inconclusive = weak or mixed curves; inactive = no such curve, though single readings can be large; an effect the other way counts as inactive or inconclusive; also: nearly all actives have a fitted effect of over 55% in size); settings: GR-bla HeLa viability, CellTiter-Glo luminescence, 18 h, with 5 nM dexamethasone present; series mostly up to 58.5 µM
[8] = qHTS assay for small molecule disruptors of the mitochondrial membrane potential - cell viability (AID 720634); also: nearly all actives have a fitted effect of over 20% in size
How it was run: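 ATP-based luminescent viability readout (CellTiter-Glo, 30 min, room temperature) in HepG2 cells multiplexed with the m-MPI membrane potential dye; compound exposure lasted 1 hr at 37 C.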
Potency is read from the fitted curve at half-maximal effect; tags tell the direction and shape of the fitted curve or compound fluorescence and quenching.

Row | SMILES | Potency [1] | Potency [2] | Potency [3] | Potency [4] | Potency [5] | Potency [6] | Potency [7] | Potency [8]
1 | CSc1ccc2c(c1)C(N1CCN(C)CC1)Cc1ccccc1S2 (centres undefined) | inconclusive: 33.5 µM [cytotoxic] | inconclusive: 33.5 µM [cytotoxic, single point] | inconclusive: 33.5 µM [falling, single point] | inconclusive: 9.87 µM [activator, partial curve] | inconclusive: 26.8 µM [cytotoxic, single point] | inconclusive: 26.8 µM [cytotoxic] | inconclusive: 26.8 µM [cytotoxic, single point] | 
2 | CSc1ccc2c(c1)N(CCC1CCCCN1C)c1ccccc1S2 (centres undefined) | inconclusive: 33.5 µM [cytotoxic, single point] and inconclusive: 68.3 µM [cytotoxic, single point] | inconclusive: 29.8 µM [cytotoxic, single point] and inconclusive: 60.9 µM [cytotoxic, single point] |  | inconclusive: 841 nM [activator, full curve, poor fit] and inconclusive: 27.2 µM [cytotoxic, partial curve] | inconclusive: 26.8 µM [cytotoxic, single point] and inconclusive: 34.5 µM [cytotoxic, partial curve] | inconclusive: 26.8 µM [inhibitor] and inconclusive: 61.4 µM [cytotoxic, single point] | inconclusive: 26.8 µM [cytotoxic, single point] and active: 54.7 µM | inconclusive: 33.5 µM [cytotoxic, partial curve, poor fit] and inconclusive: 68.3 µM [cytotoxic, single point]
